According to PubChem BioAssay AID1240 (Sanford-Burnham Center for Chemical Genomics, 2008):
Where “and” joins values, the source holds several entries; their conditions need not be identical. Equal values may be shown once. In all, about 50,000 compounds went through this assay and about 800 (1.6%) showed an effect of 50% or more. Some of the results follow.

These compounds were tested against Bcl-2-like protein 10 (Homo sapiens) (UniProt Q9HD36) (assay: Phenotype converters, Bcl-B/TR3 peptide binding displacement, primary biochemical FP (AID 1240;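 note: 0% = Bcl-B with tracer peptide and DMSO and 100% = tracer peptide lacking Bcl-B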)). Details: GST-Bcl-B / FITC-TR3 peptide fluorescence polarization; stronger effect = higher value; compound at 3.75 mg/L.
UniProt Q9HD36, sequence (Q9HD36 whole entry, looked up): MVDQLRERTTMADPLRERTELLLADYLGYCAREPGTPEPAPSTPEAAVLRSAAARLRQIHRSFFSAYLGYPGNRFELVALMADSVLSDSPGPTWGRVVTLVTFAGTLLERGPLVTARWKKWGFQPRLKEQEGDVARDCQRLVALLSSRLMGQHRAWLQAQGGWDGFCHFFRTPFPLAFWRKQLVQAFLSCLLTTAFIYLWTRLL
For `COc1ccc(OC)c(C2NC(=O)NC(C)=C2C(=O)OCCc2ccccc2)c1Br` (centres undefined), the displacement was 11%.
Work on `O=C(COc1ccc(Br)cc1)Nc1cc(Cl)cc(Cl)c1` yielded a displacement of 3.9%.
With `Cc1ccc(C)c(N2C(=O)C3C4CC(=O)C(c5ccccc54)C3C2=O)c1` (centres undefined) the displacement was -14.8%.
`COc1ccc(CN2CCN(S(=O)(=O)c3ccc(C)cc3)CC2)c(OC)c1OC` showed a displacement of -4.4%.
Compound `C=CCOc1ccc(Cl)cc1/C=C1/SC(=S)N(Cc2ccccc2)C1=O` has a displacement of 12.4%.
For `CC(C)c1ccccc1OCC(=O)Nc1ccccc1C(=O)O`, the displacement was -3.3%.
`CC1=C(C)CC(C(=O)Nc2ccc(N3C(=O)c4ccccc4C3=O)cc2)C(C(=O)O)C1` (centres undefined) was tested, and the displacement was 18.6%.
`O=C(Nc1ccc(F)cc1)c1ccccc1` was tested, and the displacement was 11%.
In the case of `CC(=O)Nc1ccc(N2C(=O)C3=C(C2=O)C2C=CC3C2)cc1`, the displacement was -9%.
Work on `COc1cc(-c2nc3sc4c(c3c(=O)[nH]2)CCCC4)ccc1OCC(=O)O` yielded a displacement of -6.5%.
`O=C(c1ccccc1Cl)N1CCN(c2c(Cl)cccc2[N+](=O)[O-])CC1` showed a displacement of 8.5%.
Compound `O=c1[nH]c(O)c(C=NCc2ccc(Cl)c(Cl)c2)c(=O)[nH]1` has a displacement of 3.8%.
`O=C(c1cccs1)N1CCN(C(c2ccccc2)c2ccccc2)CC1` was tested, and the displacement was 5.1%.
`CCOC(=O)/C(C#N)=C\c1c(C)c(C)c(/C=C(/C#N)C(=O)OCC)c(C)c1C` showed a displacement of 7.7%.
For `CC(=O)Oc1cccc(C(=O)Nc2ccc3c(c2)C(=O)N(c2ccccc2)C3=O)c1`, the displacement was -15.3%.
With `COc1ccc(C2CC(C(F)(F)F)n3ncc(C(=O)NC(C)(C)C)c3N2)cc1` (centres undefined) the displacement was 3.6%.
`COc1ccc(N2C(=O)NC(=O)/C(=C\c3ccoc3)C2=O)cc1` was tested, and the displacement was -15.8%.
For `Cc1cccc2c(C(=O)O)cc(C(=O)O)nc12`, the displacement was 2.2%.
Compound `COc1ccc(-c2cc(C(F)(F)F)n3ncnc3n2)cc1` has a displacement of -6.6%.
For `N/C(=N\S(=O)(=O)c1ccccc1)c1ccccc1`, the displacement was 11.7% and 9.4%.
`COC(=O)c1c(NC(=O)COc2ccc(C)cc2C)sc2c1CCC(C)C2` (centres undefined) gave a displacement of -5.6%.
For `Cc1cccc(N2C(=O)NC(=O)/C(=C/c3ccc(-c4ccc(C(=O)O)cc4)o3)C2=O)c1`, the displacement was -58.8%.
`O=C(Nc1cccc(-c2cn3ccccc3n2)c1)c1ccc(Br)cc1` gave a displacement of 4.7%.
For `O=C1NN(c2ccccc2)C(=O)/C1=C/c1ccccc1OCc1ccccc1F`, the displacement was 11.4%.
In the case of `Cn1c(=O)c(C(=O)NC2CCCCC2)c(O)c2ccccc21`, the displacement was 2.3%.
Compound `O=C(CCN1C(=O)/C(=C/c2cccs2)SC1=S)Nc1ccccn1` has a displacement of 126%.
`Cc1onc(-c2ccccc2)c1C(=O)Nc1ccccc1Oc1ccccc1` was tested, and the displacement was 10.9%.
In the case of `O=C1NC(=Nc2ccc(O)cc2)S/C1=C/c1ccco1`, the displacement was 33.9%.
`O=C(N/N=C\c1cccc([N+](=O)[O-])c1)c1cncc(Br)c1` showed a displacement of 5.3%.
In the case of `O=C(Nc1ccc(O)c(-c2nc3ccccc3o2)c1)c1cccnc1`, the displacement was -0.4%.
For `OC(CN1CCNCC1)Cn1c2ccccc2c2ccccc21` (centres undefined), the displacement was -7.2%.
Compound `CCCCOC(=O)c1ccc(NC(=O)c2cccc(Cl)c2Cl)cc1` has a displacement of 10.6%.
`CC1(C)OC2C(C(=O)O)O[C@@H](n3cnc4c(N)ncnc43)C2O1` (some centres undefined) showed a displacement of -5.9%.
With `O=[N+]([O-])c1ccc(/C(=C/C=Nc2ccccc2)Nc2ccccc2)cc1` the displacement was 9.8%.
Work on `O=C1C(=O)N(Cc2ccccc2)C(c2cccc(F)c2)/C1=C(/O)c1ccccc1` (centres undefined) yielded a displacement of 6.8%.
For `COc1cc(/C=N\NC(=O)c2ccc([N+](=O)[O-])cc2)ccc1OC(=O)c1cccc2ccccc12`, the displacement was 13.7%.
In the case of `CC(=O)c1ccc(NC(=S)NC(=O)c2cccnc2)cc1`, the displacement was 9%.
With `Cc1ccc(C2(C)N(O)C(C)C(c3ccccc3)=[N+]2[O-])o1` (centres undefined) the displacement was 1.8%.
Work on `Cc1csc(-c2cc3ccc(OC/C=C/c4ccccc4)cc3oc2=O)n1` yielded a displacement of 38.3%.
For `Cc1ccc(-c2nc3ccccc3o2)cc1NC(=S)NC(=O)c1ccc(Cl)cc1`, the displacement was 1.4%.
In the case of `COc1ccc(C(=O)N2CCN(Cc3ccc(C(F)(F)F)cc3)CC2)cc1OC`, the displacement was -12.3%.
`CC(C)c1ccc(N2C(=O)NC(=O)/C(=C/c3ccc(N(C)C)cc3)C2=O)cc1` was tested, and the displacement was 41.3%.
`CC(N=Cc1cc([N+](=O)[O-])cc(Br)c1O)C12CC3CC(CC(C3)C1)C2` (centres undefined) gave a displacement of 9.3%.
`O=C(Nc1ccccc1C(=O)O)c1cccc(NC(=O)C(c2ccccc2)c2ccccc2)c1` was tested, and the displacement was 4.2%.
`CCOc1ccc(S(=O)(=O)N(CC(=O)Nc2ccc(C)cc2C)c2ccc(C)cc2)cc1` gave a displacement of 14.1%.
With `COc1ccc(CC(=O)N2CCOCC2)cc1OC` the displacement was -4.2%.
`O=c1/c(=C/c2ccccc2OS(=O)(=O)c2ccccc2[N+](=O)[O-])sc2nc3ccccc3n12` was tested, and the displacement was 13.5%.
Work on `CCCNC(=O)C12CC3CCC(CC(C3)C1)C2` yielded a displacement of 6.5%.
`c1ccc(CN2CCC(N3CCN(Cc4ccccc4)CC3)CC2)cc1` was tested, and the displacement was 7.4%.
In the case of `O=S(=O)(NCCOc1ccccc1Cl)c1ccc2ccccc2c1`, the displacement was 13.1%.
Compound `Nc1ncc(Cc2ccc(F)cc2)s1` has a displacement of -2.5%.
With `CCCCOC(=O)c1cccc(NC(=O)COc2ccc3c(C)cc(=O)oc3c2)c1` the displacement was -41.8%.
`COC(=O)C1=C(C)N(C)C(C)=C(C(=O)OC)C1c1cc(Br)c(OC)c(OC)c1` gave a displacement of -3.3%.
`CCCOc1ccccc1C1NC(=O)c2c(sc3c2CCCC3)N1` (centres undefined) showed a displacement of 17.9%.
